The campaign covered roughly 45,000 compounds. About 65 (0.1%) were called active. Calls follow the shape of the dose curve; as a rule, active = well fitted activation curve with a large enough effect; inconclusive = small, poorly fitted or top-dose-only effect; inactive = no such curve, though single readings can be large or run the other way. Some of the results follow.

UniProt P54803, sequence (P54803 whole entry, looked up): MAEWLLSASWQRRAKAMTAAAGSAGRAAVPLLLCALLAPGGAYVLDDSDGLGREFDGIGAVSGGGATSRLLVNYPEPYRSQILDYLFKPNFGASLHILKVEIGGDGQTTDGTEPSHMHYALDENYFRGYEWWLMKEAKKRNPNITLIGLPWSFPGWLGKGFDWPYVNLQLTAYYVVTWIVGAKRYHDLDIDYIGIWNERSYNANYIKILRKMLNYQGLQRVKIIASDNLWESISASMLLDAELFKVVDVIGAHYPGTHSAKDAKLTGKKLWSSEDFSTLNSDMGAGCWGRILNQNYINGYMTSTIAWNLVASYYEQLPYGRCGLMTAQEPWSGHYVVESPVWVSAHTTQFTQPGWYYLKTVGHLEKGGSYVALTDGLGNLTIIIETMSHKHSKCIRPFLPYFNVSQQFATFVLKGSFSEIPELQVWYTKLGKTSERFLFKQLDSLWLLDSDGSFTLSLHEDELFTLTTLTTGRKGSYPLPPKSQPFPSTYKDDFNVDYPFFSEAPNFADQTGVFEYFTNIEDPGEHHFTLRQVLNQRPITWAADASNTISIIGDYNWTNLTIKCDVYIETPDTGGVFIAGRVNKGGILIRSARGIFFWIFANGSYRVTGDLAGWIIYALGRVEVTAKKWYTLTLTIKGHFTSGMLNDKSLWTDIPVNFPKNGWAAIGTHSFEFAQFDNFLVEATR

The target of this test is Galactocerebrosidase (Homo sapiens) (UniProt P54803). As to the kind of experiment: A Novel Cell-Based Assay to Identify Small Molecules for B -Galactocerebrosidase. Also: 0% is about no effect; nearly all actives have a fitted effect of over 65% in size. Conditions: 145M-Twi-hGALC-G270D cells (Twitcher mouse brain line with human GALC G270D), HMU-beta-Gal fluorescence, 48 h; series mostly up to 57.5 µM; activation: at the top concentration. Summed up:
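Fluorescence readout: HMU-β-gal cleavage by mutant GALC (0.1 mM final, citrate/phosphate pH 5.2 with 1 mg/mL taurocholate), stopped with carbonate/bicarbonate plus Triton X-100. Cells: murine Twitcher 145M-Twi expressing human G270D GALC; qHTS for activators.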
Turning to `COc1ccccc1C(=O)NCCn1cc(SCc2ccccc2Cl)c2ccccc21`, the “activation” value was inactive: -9.61%.

With `COC(=O)c1ccccc1NC(=O)Cn1nnc2sc(-c3ccccc3)cc2c1=O`, the “activation” value was inactive: -16.8%.

Take `CCc1ccc(-c2nn(CC(=O)NC3CCCC3)c3c2cnc2ccc(F)cc23)cc1`: the “activation” value is inactive: -14.8%.

As to `COc1ccc(-c2nc(-c3ccccc3)c(-c3ccc(O)cc3)[nH]2)cc1`, the “activation” value was inactive: -9.65%.

In the case of `COc1ccccc1CNS(=O)(=O)c1cc2c3c(c1)CCN3C(=O)CC2`, the “activation” value is inactive: -2.09%.

Take `CCOc1ccccc1NC(=O)NCCn1c(=O)oc2ccc(C)cc21`: the “activation” value was inactive: -21.6%.

As for `Cc1ccc2sc(N3CCN(C(=O)CCS(=O)(=O)c4ccc(F)cc4)CC3)nc2c1C`, the “activation” value was inactive: -38.6%.

Take `COc1ccc(OC)c(CNC(=O)CCn2c(=O)c3cccn3c3ccc(F)cc32)c1`: the “activation” value is inactive: -3.76%.

For the compound `COc1ccc(Cn2c(C(=O)O)c(CNC3CCCCCC3)c3ccc(OC)cc32)cc1`, the “activation” value was inactive: 0.832%.

Regarding `O=C(/C=C/c1ccc(F)cc1)Nc1nc2n(n1)C(c1ccc(Cl)cc1)C=C(c1ccccc1)N2` (stereo not drawn), the “activation” value was inactive: -15.9%.

As for `Cc1ccccc1-c1nc(CS(=O)(=O)CC(=O)NCc2cccc(Cl)c2)c(C)o1`, the “activation” value was inactive: 1.81%.

With `Cc1ccc(N2CC(C(=O)Nc3ccc(Br)cc3)CC2=O)cc1` (stereo not drawn), the “activation” value is inactive: -19.9%.

For `CCC1=Nc2cc(C(=O)NC3CCCC3)ccc2Sc2ccc(Br)cc21`, the “activation” value was inactive: -13.3%.

Consider `Cc1noc(/C=C/c2ccco2)c1S(=O)(=O)N1CCC(C(=O)Nc2ccc(F)c(Cl)c2)CC1`, for which the “activation” value was inactive: -31.8%.

For `COc1ccc(-n2ncc3c(NCCC4=CCCCC4)ncnc32)cc1`, the “activation” value is inactive: -23.5%.

In the case of `COc1ccc(C(=O)n2nc(-c3ccco3)nc2NCc2cccs2)cc1`, the “activation” value was inactive: -6.91%.

As to `C=Cc1ccc(CN2C(=O)N(c3cccc(Cl)c3)S(=O)(=O)c3ccccc32)cc1`, the “activation” value is inactive: -7.18%.

With `Cc1ccc2c(=O)c(C(=O)c3cccc(Cl)c3)cn(CC(=O)NCc3ccc(F)cc3)c2n1`, the “activation” value is inactive: -8.79%.

For `CCN(CC)S(=O)(=O)c1ccc2c(c1)N(CC(=O)N1CCN(c3ccccc3F)CC1)C(=O)CO2`, the “activation” value is inactive: -7.59%.

As for `COc1cc(Nc2nc3ccccc3c3nnc(C)n23)cc(OC)c1`, the “activation” value is inactive: -1%.

For `CCCCN1CCCc2cc(CN(CCCN3CCOCC3)C(=O)Nc3ccc(OCC)cc3)ccc21`, the “activation” value was inactive: -11.8%.

As for `O=C(NCc1cccc(Cl)c1)C(=O)Nc1ccc2nc3n(c(=O)c2c1)CCCCC3`, the “activation” value was inactive: -17.3%.

In the case of `COc1cccc(CN2CCc3nc(SCC(=O)Nc4ccccc4)[nH]c(=O)c3C2)c1`, the “activation” value was inactive: -3.87%.

For the compound `COc1ccc(C)cc1Nc1c2c(nc3nc(-c4cccs4)nn13)CCCC2`, the “activation” value is inactive: -10.6%.

In the case of `Cc1ccccc1NS(=O)(=O)c1nnc(NC(=O)c2ccccc2C)s1`, the “activation” value was inactive: -17%.

Regarding `O=S(=O)(NCCS(=O)(=O)N1CCN(c2ccccc2F)CC1)c1ccc(Cl)cc1`, the “activation” value was inactive: -19%.

In the case of `Cc1ccc(NC(=O)N2CCc3cc(S(=O)(=O)N4CCC(C)CC4)ccc32)cc1C`, the “activation” value is inactive: -2.55%.

Turning to `CC1Cc2cc(S(=O)(=O)NCc3ccccc3Cl)ccc2N1C(=O)C1CCC1` (stereo not drawn), the “activation” value is inactive: -10.6%.

With `CCOC(=O)c1ccc(Nc2ncnc3c2cnn3-c2cccc(Cl)c2)cc1`, the “activation” value is inactive: -10%.

Turning to `CCN(C(=O)c1cc2c(s1)-c1ccccc1OC2)c1cc(Cl)ccc1OC`, the “activation” value was inactive: -8.66%.

For the compound `O=C(NC1CCN(Cc2ccccc2)CC1)c1ccc(Cn2c(=O)c3ccccc3n(Cc3ccccc3)c2=O)cc1`, the “activation” value was inactive: 1.66%.

As to `Cc1ccc(-c2nc(-c3cc4cccc(OCc5cccc(C)c5)c4oc3=O)no2)cc1`, the “activation” value is inactive: -15.4%.

Turning to `CC(NC(=O)Nc1cc(Cl)ccc1Cl)c1c(-n2cccc2)sc2c1CCCC2` (stereo not drawn), the “activation” value is inactive: -16.3%.

As for `COc1ccc(N2CCN(C(=O)CCn3c(=O)c4cccn4c4cccnc43)CC2)cc1`, the “activation” value was inactive: 4.69%.

Regarding `CCOC(=O)c1ccc(NC(=O)c2ncn(-c3ccccc3)n2)cc1`, the “activation” value is inactive: -7.87%.

As to `CCN(CC)c1ccc(C(=O)N2CCC(c3c[nH]c4ccccc34)(c3c[nH]c4ccccc34)CC2)cc1`, the “activation” value was inactive: -20%.

Turning to `O=C(c1ccc2c(c1)N(Cc1ccccc1F)C(=O)c1ccccc1S2=O)N1CCN(c2ccccc2)CC1` (stereo not drawn), the “activation” value was inactive: -7.41%.

Consider `Cc1ccc(NC(=O)/C(C#N)=C/c2cc(C)n(-c3ccc(F)cc3)c2C)cc1C`, for which the “activation” value was inactive: -12.4%.

As to `CCc1ccc(NC(=O)Cn2c3ncccc3c(=O)n2-c2ccc(C)c(C)c2)cc1`, the “activation” value is inactive: -32%.

For `Cc1ccc(CNC(=O)c2ccc(-n3cnc4cccnc43)cc2)cc1`, the “activation” value was inactive: -15.4%.

In the case of `CCc1c(C)nc2nncn2c1Nc1ccc(C(C)C)cc1`, the “activation” value was inactive: -31.3%.

Turning to `CCOC(=O)c1ccc(NC(=O)CC2C(=O)N(c3ccc(F)cc3)C(=O)N2Cc2ccc3c(c2)OCO3)cc1` (stereo not drawn), the “activation” value was inactive: -27.6%.

As to `Cc1ccc(C)c(NS(=O)(=O)c2cc3c(cc2Cl)NC(=O)CO3)c1`, the “activation” value is inactive: -9.91%.

Take `CCOC(=O)c1cccc(NC(=O)C2CCN(S(=O)(=O)c3cn(C)cn3)CC2)c1`: the “activation” value is inactive: -0.987%.

With `COc1ccccc1Nc1nc2ccc(Cl)cc2nc1-n1nc(C)cc1C`, the “activation” value is inactive: -13.6%.

Consider `COc1ccc(C2CC(=O)Nc3c2c(=O)[nH]c2nc4ccccc4n32)cc1OC` (stereo not drawn), for which the “activation” value is inactive: -18.7%.

`COCCNC(=O)C(=O)NCC(c1cccnc1)N1CCN(c2ccccc2F)CC1` (stereo not drawn): the “activation” value was inactive: -9.64%.

On to `Cc1ccc2oc3c(c(=O)c2c1)C(c1ccc(F)cc1)N(c1nc(C)c(C)s1)C3=O` (stereo not drawn), for which the “activation” value was inactive: -16.8%.

(Values after PubChem BioAssay AID1159614 (National Center for Advancing Translational Sciences (NCATS), 2016).)
